Data reported in the RNAGym collection of RNA variant scans (doi:10.1093/nar/gkz1192).
The source gives no read counts; variants with many changes may rest on few reads.

B1: CPEB3 Ribozyme (parent)
chain: UAACAGGGGGCCACAGCAGAAGCGUUCACGUCGCAGCCCCUGUCAGAUUCUGGUGAAUCUGCGAAUUCUGCUGUAUAUCUC

Variants of: B1
Experiment: self-cleavage, relative activity (ratio to wild type); higher = more cleavage; in vitro, sequencing
Summary of the method: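 Barcoded CPEB3 ribozyme mutants, produced by rounds of error-prone PCR, self-cleaved while being transcribed with T7 RNA polymerase for 5 hours at 37°C and during a subsequent 15 min DNase I step before EDTA was added. Sequencing of template-switched cDNA on Illumina gave cleaved and total reads, and DNA sequencing assigned barcodes to variants. Each variant's relative activity is its cleaved/total read fraction divided by the unmutated ribozyme's fraction, averaged across three batches. A variant needed a minimum of 5 reads.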
Variant A15U C17U U51C A57G U76C has a self-cleavage of 0.16. In the case of A15U C17U U72C, the self-cleavage is reported as 0.43. Work on A15U C23A U31C U41A C71U yielded a self-cleavage of 0.07. Variant A15U C23G A28U U58A U67C has a self-cleavage of 0.05. Variant A15U C23G U43C U51C has a self-cleavage of 0.07. A15U C23U A35G U41C U49C U72A showed a self-cleavage of 0.1. A15U C23U A57G gave a self-cleavage of 0.13. With A15U C23U U41A the self-cleavage was 0.44. Work on A15U C23U U43A U49C yielded a self-cleavage of 0.18. With A15U C23U U51C the self-cleavage was 0.42. A15U C27A A57G showed a self-cleavage of 0.27. With A15U C27U A35G U54A U78C the self-cleavage was 0.34. In the case of A15U C27U C29U U41C U80C, the self-cleavage is reported as 0.05. A15U C27U G30A U43A A45U U80C showed a self-cleavage of 0.05. A15U C27U U74G showed a self-cleavage of 0.23. A15U C29A U43C gave a self-cleavage of 0.15. In the case of A15U C29G G36A C37U U41C A64G, the self-cleavage is reported as 0.18. Variant A15U C29G U43C U72A has a self-cleavage of 0.17. For A15U C29U G30U G52A U60A, the self-cleavage was 0.11. In the case of A15U C29U U41A U67A U80A, the self-cleavage is reported as 0.27. Work on A15U C29U U48A U66C U72A yielded a self-cleavage of 0.09. With A15U C32A U41C U58A A77G the self-cleavage was 0.05. A15U C32A U54A U67A gave a self-cleavage of 0.06. With A15U C32G A47G U69C the self-cleavage was 0.05. Work on A15U C32G U48A U51A U54A U72A yielded a self-cleavage of 0.09. For A15U C32U A56U, the self-cleavage was 0.08. A15U C32U C34U gave a self-cleavage of 0.09. Variant A15U C32U G63C has a self-cleavage of 0.12. In the case of A15U C32U U67C, the self-cleavage is reported as 0.29. With A15U C32U U67C U72A the self-cleavage was 0.07. Work on A15U C37U U58C yielded a self-cleavage of 0.12. A15U C38A G55A gave a self-cleavage of 0.11. In the case of A15U C38U U48A U54A, the self-cleavage is reported as 0.18. Variant A15U C38U U49C has a self-cleavage of 0.2. Variant A15U C38U U67A has a self-cleavage of 0.24. For A15U C39U A65G U66G U67C, the self-cleavage was 0.15. For A15U C40A G46A U60C, the self-cleavage was 0.15. A15U C40G A56U U78C showed a self-cleavage of 0.03. With A15U C40U A65U U74C the self-cleavage was 0.11. A15U C40U U43C U66C U72C gave a self-cleavage of 0.19. In the case of A15U C40U U80C, the self-cleavage is reported as 0.94. With A15U C59G U72G U80C the self-cleavage was 0.23. With A15U C59U U69C the self-cleavage was 0.09. A15U C62A U80C gave a self-cleavage of 0.56. Work on A15U C62G U67C yielded a self-cleavage of 0.06. In the case of A15U C62U U67C, the self-cleavage is reported as 0.12. In the case of A15U G16A A18U U54C U76C, the self-cleavage is reported as 0.25. Variant A15U G16A A45G has a self-cleavage of 0.25. Variant A15U G16A A56G U80C has a self-cleavage of 0.86. Variant A15U G16U A20U C27U U43A has a self-cleavage of 0.27. With A15U G19A A20G A35G U49C U58A A64U the self-cleavage was 0.06. A15U G19A A28G showed a self-cleavage of 0.14. Work on A15U G19A A35G U58G yielded a self-cleavage of 0.09. For A15U G19A U26C A45G, the self-cleavage was 0.07. A15U G19U G30A G61C showed a self-cleavage of 0.15. A15U G19U U25A A56G A57G U80C gave a self-cleavage of 0.06. A15U G19U U26A showed a self-cleavage of 0.18. Variant A15U G24A U43A A47G has a self-cleavage of 0.08. For A15U G24A U72A, the self-cleavage was 0.12. A15U G24C U49A U69C showed a self-cleavage of 0.11. With A15U G30A A75U the self-cleavage was 0.26. With A15U G30A C34U A75U the self-cleavage was 0.06. In the case of A15U G30C A35U U76C, the self-cleavage is reported as 0.17. In the case of A15U G33U A45G U54G U58C U67C U76A, the self-cleavage is reported as 0.11. A15U G33U U49C U51C C68A C81A gave a self-cleavage of 0.06. Variant A15U G42A U69A has a self-cleavage of 0.05. A15U G42C U49A U66C showed a self-cleavage of 0.04. For A15U G42U U60C, the self-cleavage was 0.16. With A15U G46U U60C U80C the self-cleavage was 0.09. A15U G52U G61C U72A gave a self-cleavage of 0.08. Work on A15U G52U U54A C79G yielded a self-cleavage of 0.53. In the case of A15U G55C U72C U78A U80C, the self-cleavage is reported as 0.27. Work on A15U G55U U72C yielded a self-cleavage of 0.83. For A15U U25A A28C U31C A64G, the self-cleavage was 0.13. Variant A15U U25A A56U has a self-cleavage of 0.15. In the case of A15U U25A A56U A64C U72A, the self-cleavage is reported as 0.1. A15U U25A A57U A64U showed a self-cleavage of 0.66. For A15U U25A C50A, the self-cleavage was 0.2. Variant A15U U25A G52C A56G G61C U69C U80C has a self-cleavage of 0.04. A15U U25A U31C U54C showed a self-cleavage of 0.2. Variant A15U U25A U60A has a self-cleavage of 0.3. Variant A15U U25C A45U has a self-cleavage of 0.25. In the case of A15U U25C A47G U58C U74C, the self-cleavage is reported as 0.05. In the case of A15U U25C C62U, the self-cleavage is reported as 0.27.
